Assay results: the supplement of paper PMC11417369
The list shows a part of the results.

system: PfSIP2 AP2 domain 1 (GST-tagged); assay: gcPBM binding intensity (ln(normalized median fluorescence intensity)); higher = stronger DNA binding
In short: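 GST-tagged P. falciparum DNA-binding domains produced in E. coli were incubated for 1 h on an Agilent 4 × 180k array of primer-extended double-stranded 36-bp intergenic genomic probes with negative controls. Binding intensity is the highest Masliner-normalised natural-log median intensity across replicate spots of either probe orientation, with bound protein detected by Alexa488 anti-GST antibody at 488 nm.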

| Sequence | gcPBM binding intensity (ln) |
| --- | --- |
| TGTAGTCTGGAGAAGAGTACATAGTATCTGGTAGCT [XGTACX_site2029] | 6.72 |
| GAATTGTATTGGTACTGTACAATTAAATTAAAAAAA [XGTACX_site1891] | 6.84 |
| AAAAAAAAAAAACACACACACACACCCATATATAAA [CACACA_site1170] | 7.14 |
| ACATAAAATTATTATACATGCATATTTAATTTTTTC [TGCATGCA_site353] | 6.98 |
| TTTTTTGTTAAGTTGGTGCAAACAATAGTTATTGAC | 9.7 |
| TATATCTACTACACACGTACACAAAATAAGATACCT [XGTACX_site7886] | 7.18 |
| GGAGCACCCAGACACACACACACATATATATATATA [CACACA_site336] | 9.19 |
| TATTATATTTTTATTTGTACGTAAAATTAAGTTATG [XGTACX_site2405] | 7.14 |
| AAAAATATAAACAAACGTACGAAGTGATGATATATT [XGTACX_site2242] | 7.02 |
| GTTAAAAGAAAAATATGTACATAAAAAAATTAGAAA [XGTACX_site578] | 6.99 |
| CTCTTGTTTCCATATAGTACGTAATAATATATACAA [XGTACX_site2428] | 7.51 |
| AAGATGGTAAAGAATTGTACGCGCATATATATATTT [XGTACX_site3904] | 7.21 |
| TTTTCAATTAAAAAAAAATTATATTTTATTATTACA [CACACA_negctrl_site142] | 6.57 |
| TATATATATATATGATGTACACATTTTATTATTTGT [XGTACX_site1147] | 9.38 |
| AATTTGATAATATCATGTACATGAAAGAATTCATGA [XGTACX_site8463] | 6.69 |
| AATAAAAAAATATGAAATTATGACATATAGCATTTG [TGCATGCA_negctrl_site160] | 6.68 |
| TACATAAATTAAAACACACACACACCCAAAAAAAAA [CACACA_site2261] | 7.12 |
| AAAAAATAAAAAGATACACACATATGTATAATATAC [CACACA_site1496] | 6.91 |
| GTGTATATTATTTTATCACACATGTACATATGTTAA [CACACA_site5473] | 7.16 |
| GGCATAAATATATGCACACACAAAAAAAAAAAAAAA [CACACA_site59] | 7.61 |
| TTTTTTTTTTTAAAAAGTACACAATTAATTAATATA [XGTACX_site8494] | 7.05 |
| ATATTGTTTTATATAGAACACACATAAAAATATATA [CACACA_site8314] | 7.04 |
| TTATTGAAAAAAGAACAAAAAAAAAAAGAAAAATTA [XGTACX_negctrl_site438] | 6.51 |

| Sequence | gcPBM binding intensity (ln) |
| --- | --- |
| TATAAACATTATAAATGTACAAATATATATATATAT [XGTACX_site3218] | 9.2 |
| ATATATATATATATATGTACTTATTTGAATACTAAA [XGTACX_site2330] | 9.31 |
| GAAAGAATAAAATTTACACACATATATATATACATA [CACACA_site2250] | 6.84 |
| AAAATAAGAAATAGATGTACTTATAAATAAATACAA [XGTACX_site4441] | 6.71 |
| TCATTATATCATGGTAGTACTCATTAATAATACGTA [XGTACX_site8701] | 7.2 |
| TATATATTTTTTAAACCACACACAATATAGAGTATA [CACACA_site8106] | 7.24 |
| AATATTATTTAGGAGCGTACGTTTTATTTACATATT [XGTACX_site5188] | 6.8 |
| GTTAATAAAAATATATGTACATAATTATTATGAAAA [XGTACX_site3030] | 7.15 |
| GGACATTTTTATAAGGTGCACGGTTTTGATATTACT [GTGCAC_site9892] | 11.1 |
| ATAATGATATATAGTACACACAAAAATGGAAGTAAA [CACACA_site7541] | 7.22 |
| AACCACATACATATAACACACATATACAATATATAT [CACACA_site8607] | 7.29 |
| TGACTATGTATATTTAGTACATAAAATCAATAATAT [XGTACX_site4082] | 7.05 |
| AAGGGTTGCCTGTGTAGTACATATATATATATATAT [XGTACX_site8555] | 9.47 |
| TCATTCATAAAAATAACACACAAAAAAAAAAAAAAA [CACACA_site1800] | 6.92 |
| AAATTATATTATTGAACACACGTTTGGTAATGTTTT [CACACA_site5469] | 6.78 |
| AAATATAAGAAAAAGGTGCTTTTTTTTTTTTTTTTT [GTGCAC_site9700] | 8.42 |
| AGGGAAAAAAAAAAAGTGCATTTGTATTAAATGAAT | 8.62 |
| GTAAACAAAATATTTTGTACATATTTTATATTATTT [XGTACX_site7837] | 6.96 |
| AAAAGATGCGCATACACACAGATGAATAACAAAAAA [CACACA_site6865] | 7.11 |
| GCACATTTTTTTATCACACATATAATTACAATATAA [CACACA_site5585] | 7.74 |
| TACGTATGCCTGTGATGTACATATATATATACATAC [XGTACX_site4728] | 7.06 |
| TTTCGGTTTTTTTTTATTTTTTTTTTTTTATTATTT [CACACA_negctrl_site335] | 6.78 |
| ATATAGGTAAAAAGTATACACACGTTGACACATTCT [CACACA_site1199] | 6.95 |

| Sequence | gcPBM binding intensity (ln) |
| --- | --- |
| ATAATATAATTTTGCAGTACCCAAAAAACAAAATAA [XGTACX_site4827] | 7.05 |
| AATATGATATATATATGTACATATATATAATATAAT [XGTACX_site3072] | 7.35 |
| AAAGTATAATAATACACACACTTTAAAAGTTAAATG [CACACA_site7550] | 7 |
| AAAAGAAAATAAGAAACACACAAAAATATATAAAAA [CACACA_site3697] | 6.65 |
| TTCTTTGCTTTTCAAACACACAAAAGTTATTATATT [CACACA_site521] | 7.22 |
| TTATAAATGTATTTATGTACATATAAATATATATAA [XGTACX_site2970] | 7 |
| ATATAAATCAAAAACGCACACATAAATATTTATATA [CACACA_site2442] | 7.31 |
| ATAAAAGAATAAATAAAACACATATATATATATATA [XGTACX_negctrl_site31] | 9.43 |
| TTTTTTTTTTTTTTGGTGCACATAGAAATTCTAAAA [GTGCAC_site9809] | 11.3 |
| CCTATTTATAAATACACACACATATATAAATAAATA [CACACA_site5629] | 7.18 |
| AAAAAACTATTATGTGCATGCACAAGTCAGGTAAAT [TGCATGCA_site791] | 8.71 |
| TATTTATAGATATATACACACATATTTATATTTATA [CACACA_site6441] | 6.83 |
| AAAAAGAAATCCAATACACACCTTCAAAATGGGTAT [CACACA_site4978] | 6.55 |
| CATTAAATATATAAATGTACAAATATATTTTTCAAA [XGTACX_site4429] | 6.98 |
| TTGTTCATATTTTTTATTGTGTTAATATTTATAAAA [GTGCAC_negctrl_site423] | 7.28 |
| TTAATGTAGAGAAAATGTACATTTTATTAAAACAAT [XGTACX_site6376] | 7.13 |
| TTTTAAATATATGTGCTATTATATTAAGAGATGTAA [GTGCAC_negctrl_site560] | 7.15 |
| ATCTATAAATTTCCACGTACATATATATATATATAT [XGTACX_site4502] | 9.19 |
| CCTCTTTTTATTCTCACACACGTTTATATATAAAGT [CACACA_site4992] | 7.68 |
| TTTTTTATTTTTGCGTGTACATAATAATGAATCTTC [XGTACX_site8077] | 7.35 |
| GAAATTTCCCATATTACACACATACTATGATATATA [CACACA_site5987] | 7.12 |
| ATGCGTTAATCTATATATATTATGTATAGATTTTCA [CACACA_negctrl_site1650] | 6.81 |
| AACATATTTATGATGTGTACCTACATAATAGAATTT [XGTACX_site141] | 6.91 |

| Sequence | gcPBM binding intensity (ln) |
| --- | --- |
| TTTTTTAATATATTATTATAAATATTTTTTATGTGT [GTGCAC_negctrl_site712] | 6.85 |
| CATAATGTAAATAAGTGTACACATATATAATACATA [XGTACX_site3108] | 7.57 |
| ATATTTTGATAATATTGTACAAAAACATTAAAATGT [XGTACX_site8361] | 6.99 |
| AACATTATGTTTATTTGTACATATAAATATATGTAA [XGTACX_site7389] | 6.89 |
| TCTTTTATGATATTTACACACAAACGTGAGATAGCT [CACACA_site2312] | 6.87 |
| CTCTACGAATTCATAGTGCAAAGAGCTAATTTTTTC [GTGCAC_site9710] | 7.63 |
| GATCATTCAGTTTTATCACACACAATCAAACATATA [CACACA_site8882] | 7.28 |
| ACAACATATGTTATCACACACATATAAATATAAATA [CACACA_site7038] | 6.87 |
| ATTTTGATGATGTATGCACACATTGAAAATGAGAAA [CACACA_site2916] | 9.12 |
| ATATATATATATATATGTACATATTTGATTTTTCTT [XGTACX_site8171] | 9.44 |
| CACACGCACAGACACACACACACACGGATATAAATA [CACACA_site6301] | 7.71 |
| TTTTTTTTTTTTTTTTGTACATATAAAAATACGTAA [XGTACX_site6003] | 7.1 |
| TCACTACATTTTGGACGTACACAACTTGATATATTG [XGTACX_site4775] | 7.29 |
| ATGATATACTTGAGTGTGCACAAACTATTACTTACA | 9.32 |
| AAATCTTAACTCTATGCACACATAAAAGTATATAAA [CACACA_site8709] | 7.21 |
| ATCGGTAATATTAACACACACATTTATATATATTTA [CACACA_site1084] | 7.2 |
| TTTTGTAGATATTGAAGTACAAAAAAAATGTAAAAG [XGTACX_site5905] | 7.06 |
| TATATATCGCCCTTCACACACACACGGATATAAATA [CACACA_site7221] | 7.49 |
| CGCTCTTATAAATGTTGTACATAAAACTGTTCATTA [XGTACX_site3409] | 7.11 |
| ATAATAAATATATAATGTACATATTATGTTCTTTAT [XGTACX_site8655] | 6.93 |
